Source: the supplement of paper PMC12217912
Some of the results follow. The full chains were built here from the parent and the listed change. Values near 0.05 are background.

B1: TEV protease; numbered along this chain (parent)
chain: MGESLFKGPRDYNPISSSICHLTNESDGHTTSLYGIGFGPFIITNKHLFRRNNGTLVVQSLHGVFKVKDTTTLQQHLVDGRDMIIIRMPKDFPPFPQKLKFREPQREERICLVTTNFQTKSMSSMVSDTSCTFPSGDGIFWKHWIQTKDGQCGSPLVSTRDGFIVGIHSASNFTNTNNYFTSVPKNFMELLTNQEAQQWVSGWRLNADSVLWGGHKVFMVKPEEPFQPVKEATQL

Variants of: B1
Test: raw area under fraction-flipped curve 0-4 h after induction (AUC4h, not background-subtracted), DNA-recorder readout of cleavage of the substrate (dimensionless); higher = more cleavage of the substrate by the protease variant
Conditions: temperature: 34 °C; time window: 0-4 h after rhamnose induction
Description: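 In vivo DNA recorder in E. coli TOP10(DE3) ΔrhaA at 34 °C. Each TEVp single-site mutant (parent TEVp 0) is paired with a single-site variant of the 7-mer TEVs (canonical ENLYFQ|S). The substrate sits between flexible linkers in a Bxb1-sfGFP-TEVs-SsrA fusion, so cleavage stabilises Bxb1 and speeds flipping of a recombination array, read by NGS. The value is the raw area under the fraction-flipped curve over 0-4 h after rhamnose induction (AUC4h), with ≥20 reads per time point. It is not background-subtracted; inactive controls average about 0.047.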
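Also: Bxb1 expression induced with 0.2% (w/v) L-rhamnose at OD600 near 0.5, cultures sampled hourly, flipped fraction per protease–substrate barcode pair counted by paired-end Illumina sequencing.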

Row | Variant | area with substrate ENLAFQS | area with substrate ENLGFQS | area with substrate ENLNFQS | area with substrate ENLPFQS | area with substrate ENLDFQS | area with substrate ENLEFQS | area with substrate ENLFFQS | area with substrate ENLHFQS | area with substrate ENLIFQS | area with substrate ENLKFQS
1 | S209N | 0.063 | 0.059 | 0.0871 | 0.0556 |  |  |  |  |  | 
2 | S209H | 0.0598 | 0.0743 | 0.0596 |  | 0.0625 | 0.0663 | 0.0982 | 0.0712 | 0.0869 | 0.0812
3 | L205S | 0.0571 |  |  |  | 0.0455 |  |  |  |  | 0.0665
4 | N172P | 0.0763 |  |  |  | 0.0444 |  |  | 0.0762 |  | 
5 | G138Y |  | 0.0597 | 0.0407 | 0.0613 |  | 0.0645 | 0.0554 | 0.0552 |  | 0.0635
6 | F187G | 0.0679 | 0.0595 | 0.0589 | 0.0568 |  | 0.0642 |  | 0.0509 |  | 0.0621
7 | P89V | 0.0492 |  |  | 0.0744 |  |  | 0.0534 |  | 0.0649 | 0.0509
8 | I164V | 0.0689 |  |  |  |  |  |  |  |  | 0.0669
9 | K185L | 0.0657 |  |  |  |  | 0.0841 |  | 0.0785 |  | 
10 | Q97W | 0.0553 |  | 0.0707 | 0.0711 | 0.0793 |  | 0.0971 | 0.055 |  | 0.0611
11 | Q97T | 0.0677 |  |  |  |  |  | 0.115 |  |  | 
12 | Q97E | 0.0471 |  | 0.0738 | 0.0592 | 0.0626 | 0.0839 | 0.0711 | 0.0958 |  | 
13 | T115K | 0.0716 | 0.0462 | 0.0692 | 0.0554 | 0.073 | 0.062 | 0.0782 | 0.0774 | 0.0939 | 0.106
14 | S201E | 0.0703 |  | 0.0463 |  | 0.0557 |  | 0.0877 | 0.0538 |  | 0.0702
15 | R87T | 0.0524 |  | 0.067 |  | 0.0665 |  | 0.0581 |  |  | 
16 | Q194C | 0.0776 |  | 0.0642 | 0.0504 | 0.0837 |  | 0.1 | 0.0584 |  | 
17 | S154I |  |  | 0.0459 |  | 0.078 |  | 0.0987 | 0.0667 | 0.0706 | 
18 | T174I | 0.0753 |  |  |  |  |  |  |  | 0.0518 | 
19 | T174G | 0.062 |  | 0.0647 | 0.063 | 0.0646 | 0.0598 | 0.0784 | 0.0613 | 0.07 | 0.0657

Row | Variant | area with substrate ENLAFQS | area with substrate ENLGFQS | area with substrate ENLNFQS | area with substrate ENLPFQS | area with substrate ENLDFQS | area with substrate ENLEFQS | area with substrate ENLFFQS | area with substrate ENLHFQS | area with substrate ENLIFQS | area with substrate ENLKFQS
20 | N45G | 0.0718 |  | 0.0663 | 0.0601 | 0.0615 | 0.0716 |  | 0.0575 | 0.0521 | 0.0798
21 | P134R | 0.0553 |  | 0.0595 | 0.0701 | 0.0666 | 0.0541 | 0.0694 | 0.0676 | 0.0915 | 0.0662
22 | Q197I | 0.0285 | 0.0653 | 0.088 |  |  |  | 0.0926 | 0.068 |  | 0.105
23 | K142N | 0.0604 |  | 0.0658 |  | 0.0594 |  |  | 0.0651 |  | 0.0726
24 | D161G | 0.0678 | 0.0429 | 0.0529 | 0.0382 | 0.064 | 0.0595 | 0.0714 | 0.06 | 0.113 | 0.069
25 | E195S | 0.0448 |  |  | 0.0737 | 0.0615 | 0.0285 |  |  |  | 0.0628
26 | V183G | 0.0627 |  | 0.0232 |  | 0.0476 | 0.0549 | 0.0674 |  | 0.0378 | 
27 | Q75D | 0.0373 | 0.0606 | 0.0654 |  | 0.054 |  | 0.0527 | 0.063 | 0.0547 | 
28 | R51S | 0.0722 |  |  | 0.0583 |  |  | 0.0556 |  |  | 
29 | I86C | 0.0967 |  |  |  | 0.0652 | 0.0562 |  | 0.0717 |  | 
30 | W212S | 0.0697 |  |  | 0.0488 |  | 0.0473 |  |  |  | 
31 | R81A | 0.0698 |  | 0.0536 | 0.0489 |  |  | 0.0676 | 0.0986 | 0.0621 | 
32 | N178Q | 0.073 | 0.077 |  |  |  | 0.0647 | 0.103 |  |  | 
33 | K100D | 0.0506 | 0.0757 | 0.06 |  | 0.057 | 0.0361 |  | 0.0623 | 0.0837 | 0.0644
34 | F92N | 0.0738 |  | 0.0641 |  | 0.0658 |  |  | 0.0583 | 0.0732 | 
35 | G166K |  |  |  |  | 0.0648 |  |  | 0.0746 |  | 0.0536
36 | A170E | 0.0995 |  | 0.0647 |  |  |  |  | 0.0301 | 0.0754 | 
37 | R102E | 0.0476 | 0.0703 | 0.0556 | 0.0491 | 0.0509 | 0.0641 | 0.0441 | 0.0524 |  | 0.0447

Same assay, conditions: temperature: 34 °C; time window: 0-4 h after rhamnose induction

Row | Variant | area with substrate ENLQFQS | area with substrate ENLSFQS | area with substrate ENLTFQS | area with substrate ENLCFQS | area with substrate ENLMFQS | area with substrate ENLRFQS | area with substrate ENLLFQS | area with substrate ENLWFQS | area with substrate ENLVFQS
38 | S209H | 0.0766 | 0.0703 | 0.0644 |  |  |  |  |  | 
39 | L205S |  |  |  | 0.0651 |  |  |  |  | 
40 | G138Y |  | 0.0634 |  | 0.0545 | 0.0727 | 0.09 |  |  | 
41 | F187G | 0.0714 | 0.0626 |  | 0.0545 |  | 0.0623 | 0.0549 |  | 
42 | P89V |  | 0.0193 | 0.0436 |  |  |  | 0.0507 |  | 
43 | I164V |  |  |  | 0.0647 |  |  | 0.0615 |  | 
44 | K185L |  | 0.0363 |  |  |  | 0.082 | 0.083 | 0.0714 | 
45 | Q97W |  |  |  |  |  |  | 0.0746 |  | 0.12
46 | Q97T |  |  | 0.0666 |  | 0.097 | 0.0512 |  | 0.0764 | 
47 | Q97E |  |  |  | 0.0578 |  |  |  |  | 0.118
48 | T115K | 0.0453 | 0.0688 | 0.0613 | 0.0854 | 0.0759 |  |  |  | 
49 | S201E |  | 0.0655 | 0.0723 | 0.0599 | 0.0619 | 0.0683 |  | 0.0594 | 0.0765
50 | R87T |  |  |  |  | 0.0533 |  | 0.0827 | 0.0612 | 0.0648
51 | Q194C | 0.0882 |  |  |  | 0.0636 | 0.0707 |  | 0.0902 | 0.0714
52 | S154I |  | 0.0666 |  | 0.0659 | 0.0817 |  |  |  | 
53 | T174G |  |  |  | 0.0705 |  |  |  |  | 
54 | N45G |  | 0.0618 | 0.0672 |  | 0.0815 | 0.0624 | 0.0532 | 0.051 | 

Row | Variant | area with substrate ENLQFQS | area with substrate ENLSFQS | area with substrate ENLTFQS | area with substrate ENLCFQS | area with substrate ENLMFQS | area with substrate ENLRFQS | area with substrate ENLLFQS | area with substrate ENLWFQS | area with substrate ENLVFQS
55 | P134R |  | 0.0512 |  | 0.0652 | 0.0804 |  | 0.069 | 0.0814 | 0.0666
56 | Q197I | 0.0789 | 0.0722 | 0.0815 |  | 0.0778 | 0.0885 |  |  | 
57 | K142N | 0.0606 |  |  |  |  |  | 0.0744 | 0.076 | 0.0782
58 | D161G | 0.0762 | 0.0616 |  | 0.0481 |  |  | 0.0724 |  | 
59 | E195S |  |  |  |  | 0.0791 | 0.0727 | 0.102 |  | 0.0877
60 | V183G |  | 0.0407 |  |  |  | 0.0488 | 0.0508 | 0.0343 | 0.0358
61 | Q75D | 0.0482 | 0.0607 |  |  |  |  | 0.0358 | 0.0576 | 
62 | I86C | 0.0625 | 0.0618 |  |  |  |  |  | 0.0549 | 
63 | W212S | 0.0567 |  |  | 0.0463 | 0.0384 |  |  |  | 0.0598
64 | R81A |  | 0.0594 |  |  |  |  | 0.065 | 0.0591 | 
65 | N178Q | 0.0786 |  |  | 0.0596 |  |  |  | 0.0956 | 
66 | K100D | 0.0611 |  |  |  | 0.074 | 0.0667 |  | 0.0606 | 0.0752
67 | F92N | 0.0675 | 0.0682 |  |  |  |  | 0.0642 |  | 
68 | G166K | 0.0555 | 0.0364 | 0.0618 | 0.0562 |  |  |  |  | 
69 | A170E |  |  |  | 0.0632 |  |  |  | 0.0492 | 
70 | R102E |  | 0.0538 |  |  | 0.0689 | 0.053 |  |  | 
